In the RNAGym collection of RNA variant scans (doi:10.1101/gad.245936.114):
Variants at the background level are over-represented here.

B1: tRNA (parent)
chain: CUCUCGGUAGCCAAGUUGGUUUAAGGCGCAAGACUUUAAUUUAUCACUACGAAAUCUUGAGAUCGGGCGUUCGACUCGCCCCCGGGAGAUUUUUUCCUCGAGCAA

Variants of: B1
Assay: nonsense suppression (GFP-seq) (ratio to wild type); higher = more function; SUP4oc tRNA, yeast GFP reporter sort-seq
In short: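 Yeast carrying genome-integrated SUP4oc tRNA variants from a library with ~3% random mutations were grown in raffinose/galactose medium with 80 mg/L adenine. Each strain also carried a galactose-driven GFP ochre reporter and RFP. Cells were sorted into GFP/RFP bins, and each bin was Illumina-sequenced (phred ≥30). Nonsense suppression (GFPSEQ) is the bin median GFP/RFP, weighted by each variant's estimated cell share per bin, relative to wild-type SUP4oc; variants needed ≥100 reads and ≥30 cells.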

Nonsense suppression, ≤ 0.026:
CUCUCGCUAGCCAAGUUGGUUUAGGGCUCAAGACUUUAAUUUAUCACUACGAAAUCUUGAGAGCGGGCGUUCGACUCGCCCCCGGGGUAUUUUUUCCUCGAGCAA [G7C A24G G28U U63G A87G G88U]
CUCUCGCUAGCCAUGUUGGUUUAAGGCGGAAGACUUUAAUUUAUCACUACGAAAUCUAGAGAUCGGGCGUUCGACUCGCCCCCGGGAGAUUUUUUCCUCGAGCAA [G7C A14U C29G U58A]
CUCUCGAUAGCCAAGUUGGUAUAAGACGCAAGACUUUAAUUUAUCACUACGAAAUCGUGAGAUCGGGCGUUCGACUCGCCCCCGGCAGAUUUUUUCCUCGAGCAA [G7A U21A G26A U57G G86C]
CUCUCGCUAGCCAAGUUGGUUUAAGGCGCAAGGCUUUAAUUUAUCACUACGAAAUCUUGUGAUCGGGCGUUCGACUCGCCCCCGGGAUAUUUUUUCCUCGAGCAA [G7C A33G A60U G88U]
CUCUCGAUAGCCAAGUUGGUUUAAGGCGCAAGACUUUAAUUUAUCACUACGAAAUCUUGAGAUCGGGCGUUCGACUCUCCCCCGGGAGAUUUUUUCCUCGAGCAA [G7A G78U]
CUCUCGAUAGCCAAGUUGGGUUAAGGCGCAAGAUUUUAAUUUAUCACUACGAAAUCUUGAGCUCGGGCGUUCGACUCGCCCCCGGGAGAUUUUUUCCUCGAGCAA [G7A U20G C34U A62C]
CUCUCGAUAGCCAAGUUGGUUUAAGGCGCAAGACUUUAAUUUAUCACUACGAAACCUUGAGAUCGGGCGUUCGACUCGCCCCCGGGAGAUUUUUUCCUCGAGCAA [G7A U55C]
CUCUCGCUAGCCAAGUUGGUUUAAGGCGCACCACUUUAAUUUAUCACUACGAAAUCUUGAGAUCGGGCGUUCGACUCGCCCCCGGGAGAUUUUUUCCUCGAGCAA [G7C A31C G32C]
CUCUCGAUAGCCAAGUCGGUUUAAGGCGCAAGACUUUAAUUUAUCACUACGAAAGCUUGAGAUCGGGCGUUCGACUCGCCCCCGGCAGAUUUUUUCCUCGAGCAA [G7A U17C U55G G86C]
CUCUCGAUAGCCAAGUUGGUGUAAGGCGCAAGACUUUAAUUUAUCACUACGAAAUCUUGAGAUCGGCCGUUCGACUCGCCCCCGGGAGAUUUUUUCCUCGAGCAA [G7A U21G G67C]
CUCUCGCUAGCCAAGUUGGUUUAAGGCGCAAGACUUUAAUUUAUCACUACGAAAUCUUGAGAUCGGGCGUUCGCCCCGCCCCCGGGAGAUUUUUUCCUCGAGCAA [G7C A74C U76C]
CUCUCGAUAGCCAAGUUGGUUUAAGGCGCAAGACUUUAAUUUAUCACUACGAAAUCUUGAGAUCGGGCGUUCGACUCGCCCCCGGGACAUUUUUUCCUCGAGCAA [G7A G88C]
CUCUCGACAGCCAAGUUGGUUUAAGGCGCCAGACUUUAAUUUAUCACUACGAAAUCUAGAGAUCGGGCGUUCGACUCGCCCCCGGGAGAUUUUUUCCUCGAGCAA [G7A U8C A30C U58A]
CUCUCGCUAGCCAAGUUGGUUUAUGGCGCAAGACUUUAAUUUAUCACUACGAAAUCAUGAGAUCGGGCGUUCGACUCGCCCCCGGGAGAUUUUUUCCUCGAGCAA [G7C A24U U57A]
CUCUCGCUAGCCAAGUUGGUUUAAGGCGCAAGCCUUUAAUUUAUCACUACGAAAUCUUGAGAUCGGGCGUUCGACUCGCCCCCGGGAGAUUUUUUCCUCGAGCAA [G7C A33C]
CUCUCGAUAGCCAAGUCGGUUUAAGGAGCAAGACUUUAAUUUAUCACUACGAAAUCUUGAGGUCGGGCGGUCGACUCGCCCCCGGGAGAUUUUUUCCUCGAGCAA [G7A U17C C27A A62G U70G]
CUCUCGCUAGCCAAGUUGGUUUAAGGCGCACGACUUUAAUUUAUCACUACGAAAUCUUGAGAUCGGGCGUUCGACUCGCCCCCUGGGGAUUUUUUCCUCGAGCAA [G7C A31C G84U A87G]
CUCUCGAUAGCCAAGUUGGUUUAAGGCGCAAGACGUUAAUUUAUCACUACGAAAUCUUGAGAUGGGGCGUUCGACUCGCCCCCGGGAGAUUUUUUCCUCGAGCAA [G7A U35G C64G]
CUCUCGCUAGCCAAGUUGGUUUAAGGCGCAAGACUUUAAUUUAUCACUACGAAUUCUUGAGAUCGGGCGUUCGACUCGCCCCCGGGAGAUUUUUUCCUCGAGCAA [G7C A54U]
CUCUCGCUAGCCAAGUUGGUUUUAGGCGCAAGACUUUAAUUUAUCACUACGAAAUCUUGAGAUCGGGCCUUCGACUCGCCCCCGGGAGAUUUUUUCCUCGAGCAA [G7C A23U G69C]
CUCUCGCUAGCCAAGUUGGUUUAAGGCGCAAGGCUUUAAUUUAUCACUACGAAAUCUUGAGAUCGGGCGUUCGACUCGCCCCCAGGAGAUUUUUUCCUCGAGCAA [G7C A33G G84A]
CUCUCGCUGGCCAAGGUGGUUUAAGGCGCAAGACUUUAAUUUAUCACUACGAAAUCUUGAGAUCGGGCGUACGACUCGCCCUCGGGAGAUUUUUUCCUCGAGCAA [G7C A9G U16G U71A C82U]
CUCUCGCUAGCCAAGUUGGUUUAAGGCGCUAGGCUUUAAUUUAUCACUACGAAAUCUUGAGAUCGGGCGUUCGACUCGGUCCCGGGAGAUUUUUUCCUCGAGCAA [G7C A30U A33G C79G C80U]
CUCUCGCUAGCCAGGUUGGUUUAAGGCGCAAGACUUUAAUUUAUCACUACGAAAUCUCGAGAUCGGCCGUUCGACUCGCCCCCGGGAGAUUUUUUCCUCGAGCAA [G7C A14G U58C G67C]
CUCUCGAGAGCCAAGUUGGUUUAAGGCGCAAGACUUUAAUUUAUCACUACGAACUCUUGAGAUCGGGCGUUCGACUCGCCUCCGGGGGAUUUUUUCCUCGAGCAA [G7A U8G A54C C81U A87G]
CUCUCGAUAGCCAAGUUGGAUUAAGGCGCAAGACUUUAAUUUAUCACUACGAAAUCUUGUGAUCGGGCGCUCGACUCGCCCCCGGGAGAUUUUUUCCUCGAGCAA [G7A U20A A60U U70C]
CUCUCGCUUGCCAAGUGGGUUUAAGGCGCAAGACUUUAAUUUAUCACUACGAAAUCUUGAGAUCGGGCGUUCGACUGGCCCCCGGGACAUUUUUUCCUCGAGCAA [G7C A9U U17G C77G G88C]
CUCUCGCUAGCCAAGUUGGUUUAAGGCGCAAGACUUUAAUUUAUCACUACGAAAUCUUGGGAUCGGGCGUUCGACUCGCCCCCGGGAGAUUUUUUCCUCGAGCAA [G7C A60G]
CUCUCGCUAGCCAAGUUGGUUUAAGGCGCAAGGCUUUAAUUUAUCACUACGAAAUCUUGAGAUCGGGCGUUCGAAUCGCCCCCGGGAGAUUUUUUCCUCGAGCAA [G7C A33G C75A]
CUCUCGAUAGCCAAGUUGGUUUAAGGCGCAAGACUUUAAUUUAUCACUACGAAAGCUUGCGAUUGGGCGUUCGACUCACCCCCGGGAGAUUUUUUCCUCGAGCAA [G7A U55G A60C C64U G78A]
CUCUCGCUAGCCAGGUUGGUUUAAGGCGCAAGACUUUAAUUUAUCACUACGAAAUCUUGAGAUCGGGAGUUCGACUCACCCCCGGGAGAUUUUUUCCUCGAGCAA [G7C A14G C68A G78A]
CUCUCGCUAGCCACGUUGGUUUAAGGCGCAAGACUUUAAUUUAUCACUACGAAAUCUUGAGAUCGGGCGUUCGACUCGCCCCCGGGAGAUUUUUUCCUCGAGCAA [G7C A14C]
CUCUCGCUAGCCAAGUUGGUUUAGGGCGCAAGACUUUAAUUUAUCACUACGAACUCAUGAGAUCGGGCGUUCGACUCGCCCCCGGGAGAUUUUUUCCUCGAGCAA [G7C A24G A54C U57A]
CUCUCGAUAGCCAAGUUGGUUUAAGGCGCAAGACUUUAAUUUAUCACUACGAAAUCUUGAGAACGGGCGUUCGACUCGACCCCGUGAGAUUUUUUCCUCGAGCAA [G7A U63A C79A G85U]
CUCUCGAUAGCCAAGUUGGUAUAAGGCGCAAGACUUUAAUUUAUCACUACGAAAUCUUGAGAUCGGGCGUUCGACACGCCCCCGGGAGAUUUUUUCCUCGAGCAA [G7A U21A U76A]
CUCUCGCUAGCCAAGUUGGUUUAAGGCGCAGGUCUUUAAUUUAUCACUACGAAAUCUUGAGAUCGGGCGUUCGACUCGCCCCCGGGAGAUUUUUUCCUCGAGCAA [G7C A31G A33U]
CUCUCGCUAGCCAAGUUGGUUUAAGGCGCAAGACUUUAAUUUAUCACUACGAAAUCUUGAGAUCGGGCGUUCGGCUCGCCCCCGGGAGAUUUUUUCCUCGAGCAA [G7C A74G]
CUCUCGAUAGCCAAGUUGGUUCAAGGCGCAAGACUUUAAUUUAUCACUACGAAAUCUUAAGAUCGGGCGUUCGACUCGCCCCCGGGAGAUUUUUUCCUCGAGCAA [G7A U22C G59A]
CUCUCGCUAGCCAAGUUGGUUUAAGGCGCAUGACUUUAAUUUAUCACUACGAAAUCUUGAGAUCGGGCGUUCGACUCUCCCCCGGGAGAUUUUUUCCUCGAGCAA [G7C A31U G78U]
CUCUCGCUAGCCAAGUUGGUUUAAGGCGCAAGGCUUUAAUUUAUCACUACGAAAUCUUGAGAUCGGGCGUUCGACUCGCCCCCGGGGGAUUUUUUCCUCGAGCAA [G7C A33G A87G]
CUCUCGAUAGCCAAGUUGGUUUAAGGCGCAAGACGUUAAUUUAUCACUACGAAAUCGUGAGAUCGGGCGUUCGACUCGGCCCCGGGAGAUUUUUUCCUCGAGCAA [G7A U35G U57G C79G]
CUCUCGAUAGCCAAGUUGGCUUAAGGCGCAAGACUUUAAUUUAUCACUACGAAAUCUUGAGAUCGGGCGUUCGACUCGCCCACGGAAACUUUUUUCCUCGAGCAA [G7A U20C C82A G86A G88A A89C]
CUCUCGCUAGCCAAGUUGGUUUAAGGCGCACGACUUUAAUUUAUCACUACGAAAUCUUGAGAUCGGGCGUUCGACUCGCCCCCGGGAGAUUUUUUCCUCGAGCAA [G7C A31C]
CUCUCGCUAGCCAAGUUGGUUUCAGGCGCAAGACUUUAAUUUAUCACUACGAAAUCUUGAGAUAGGCCGUUCGACUCGCCCCCGGGAGAUUUUUUCCUCGAGCAA [G7C A23C C64A G67C]
CUCUCGCUAGCCAAGUUGGUUUUAGGCGCAAGACUUUAAUUUAUCACUACGAAAUCUUGAGAUCGGGCGUUCGACUCGCCCCCGGGAGAUUUUUUCCUCGAGCAA [G7C A23U]
CUCUCGCUAGCCAAGUUGGUUUAUGGCGCAAGACUUUAAUUUAUCACUACGAAAUCUUGGGAUCGGGCGUUCGACUCGCCCCCGGGAGAUUUUUUCCUCGAGCAA [G7C A24U A60G]
CUCUCGAUAGCCAAGUUGGUUUAAGGCGCAAGACUUUAAUUUAUCACUACGAAAUCUUGAGAUCGGGCGUUCCACUCGCCCCCGGGAGAUUUUUUCCUCGAGCAA [G7A G73C]
CUCUCGCUAGCCAAGUUGGUUUAAGGCGCAAGACUUUAAUUUAUCACUACGAAAUCUUGAGCUCGGGCGUUCGACUCGCCCCCGGGAGAUUUUUUCCUCGAGCAA [G7C A62C]
CUCUCGCUAGCCCAGUUGGUUUAAGGCGCAAGACUUUAAUUUAUCACUACGAAAUCUUGAGUUCGGGCGUUCGACUCGCCCCCGGGAGAUUUUUUCCUCGAGCAA [G7C A13C A62U]
CUCUCGCUAGCCCAGUUGGUUUAAGGCGCAAGACUUUAAUUUAUCACUACGAAAUCUUGAGAUCGGGCGUUCGACUCGCCCCCGGGAGAUUUUUUCCUCGAGCAA [G7C A13C]
CUCUCGAUAGCCAAGUUGGUUUAAGGCGCAAGACUUUAAUUUAUCACUACGAAAUCUGGAGAUCGGGCGUUCGACUCGCCCUCGGGAGAUUUUUUCCUCGAGCAA [G7A U58G C82U]
CUCUCGAUAGCCAAGUUGGCUUAAGGCGCAAGACUUUAAUUUAUCACUACGAAAUCUUGAGAUCGGGCGAUCGACUCGCCCCCGGGAGAUUUUUUCCUCGAGCAA [G7A U20C U70A]
CUCUCGAUAGCCAAGUUGGUUUAAGGCGCAAGACUUUAAUUUAUCACUACGAAAUCUUGAGACCGGGCGUUCGACUCGCCCAGGGGAGAUUUUUUCCUCGAGCAA [G7A U63C C82A C83G]
CUCUCGCUAGCCAAGUUGGUUUAAGGCGCAAGUCUUUAAUUUAUCACUACGAAAUCUUGAGAUCGGGCGUUCAACUCGCCCCCGGGAGAUUUUUUCCUCGAGCAA [G7C A33U G73A]
